Source: the supplement of paper PMC11417369
This is one part of the list.

Tested on: PfHDP1 homeodomain (GST-tagged)
Experiment: gcPBM binding intensity (ln(normalized median fluorescence intensity)); higher = stronger DNA binding
In short: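 An Agilent 4 × 180k array carrying primer-extended double-stranded 36-bp intergenic genomic probes and negative controls received GST-tagged P. falciparum DNA-binding domains expressed in E. coli, about 25 μg on average, for 1 h. The binding buffer contained 1× PBS, 1% milk, 0.2 mg/ml BSA, 0.5% salmon testes DNA and 0.03% Triton X-100. Binding intensity is the top Masliner-normalised natural-log median intensity across replicate spots of either probe orientation, read after Alexa488 anti-GST antibody staining and a 488 nm scan.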

Going from “CAATAATATATATATTGTACATTTTTTTTTATTATT [XGTACX_site3149]” to “AAAGATTCTTTGAATTGTACAAATATATTTACTCAC [XGTACX_site8772]”, the “gcPBM binding intensity (ln)” value falls from 6.64 to 6.56.

First: TATATTATTTTCTTTTGTACACATATATATCAGTGT [XGTACX_site664]
Second: ATGTTCCATTTTACTTGTACTAATTTTTTCCTATCT [XGTACX_site6474]
The “gcPBM binding intensity (ln)” value of the first is higher: 6.8 for the first, 6.72 for the second.

Compared with “ATGATAATTTTTTTCTCACACACAAATATTTTAATC [CACACA_site3665]”, “TTAATGGCAAAATAGGCACACACACCGATACATATA [CACACA_site8263]” is higher in “gcPBM binding intensity (ln)” value: 6.5 for the first, 6.77 for the second.

First: ATAATATTTAGGTGTGCACACAAACATACATATATA [CACACA_site9120]
Second: ACAGTAGCCAGTAACTGTACGGATTGTAGAGATCAG [XGTACX_site4873]
The “gcPBM binding intensity (ln)” value of the first is higher: 10.9 for the first, 6.55 for the second.

Compared with “ATTATTTTTAAAAATTGTACAGTATAAGAGAGAAAT [XGTACX_site7094]”, “AATAAAAAAATATATTGTACTAATAATTATATGTTT [XGTACX_site2246]” is lower in “gcPBM binding intensity (ln)” value: 7.39 for the first, 6.47 for the second.

Compared with “TATTGTAAAAAGATTACACACGTTCTATATACTTTT [CACACA_site5379]”, “AAATCACATAAAACATAATCAAATGAAATATAATCA [CACACA_negctrl_site123]” is lower in “gcPBM binding intensity (ln)” value: 6.46 for the first, 6.18 for the second.

Going from “TAAATATTATTATATACATGCACTTACAACTTTTTT [TGCATGCA_site877]” to “ACTGTAAATTTATTCGGTACACATATAAATAATATT [XGTACX_site7346]”, the “gcPBM binding intensity (ln)” value falls from 7.3 to 6.54.

First: AAAAAATCACAACACACACACACACTAATAAAAAAA [CACACA_site8410]
Second: ATAAAGGTTTTCCAAGCATGCCACATAGTGACATAC [TGCATGCA_site193]
The “gcPBM binding intensity (ln)” value of the first is higher: 6.84 for the first, 6 for the second.

Going from “CAATATAAAATAAAATGTACTTGTAGTAAAGGGATA [XGTACX_site1452]” to “AGATAGATACATACACGTACATATATATATACACAT [XGTACX_site4755]”, the “gcPBM binding intensity (ln)” value rises from 6.66 to 6.74.

First: GATGAGGACAAACACACACACATAAGTTGATACATA [CACACA_site3424]
Second: TTTATGGATGTGTATGCATGCCTAAATAAATATATG [TGCATGCA_site916]
The “gcPBM binding intensity (ln)” value of the first is higher: 6.91 for the first, 6.79 for the second.

Compared with “ACGACATATGGATGATGTACTATCTTTATTATACAT [XGTACX_site6857]”, “TAAATAATGTAAAAAACATCATCAAAATGTTAATTA [CACACA_negctrl_site1768]” is lower in “gcPBM binding intensity (ln)” value: 6.43 for the first, 5.58 for the second.

First: TCTCAAAAAAAAAAAAAAAAAAAAAAATTAAAAAAT [CACACA_negctrl_site1120]
Second: TGAAATTTATAATAGTGTACAAAGAAAAAAAAAAAA [XGTACX_site4965]
The “gcPBM binding intensity (ln)” value of the first is lower: 5.51 for the first, 6.48 for the second.

Going from “ATTAGAAAAAAGATAGCACACACGGCCCAATATATA [CACACA_site2417]” to “AAGGTTATATAAAAAAGTACGCATAAGATGTTGTTC [XGTACX_site807]”, the “gcPBM binding intensity (ln)” value falls from 6.78 to 6.59.

Compared with “TATTATAATATGTAGCGTACATTTTTTCTTTCTTTT [XGTACX_site7831]”, “TATATTTATATTCTTACATTTTTTATGTTTTTTTTT [CACACA_negctrl_site1017]” is lower in “gcPBM binding intensity (ln)” value: 6.49 for the first, 6.11 for the second.

Going from “AAAATAACATAAAAGAGTACTAAACCAAGATCAAAT [XGTACX_site7973]” to “TAAACAGACATATAAACACACATATAAACCGACATA [CACACA_site2478]”, the “gcPBM binding intensity (ln)” value falls from 6.88 to 6.76.

First: GTCATATTATTCTTTTCACACACGCGTTAATAATAA [CACACA_site9302]
Second: ATACCTAAAAAATATACACACATATTTATAAATATA [CACACA_site7260]
The “gcPBM binding intensity (ln)” value of the first is higher: 7.8 for the first, 6.71 for the second.

First: TAGAATAAACCAAGAAGTACTGTTTAATGAAAAGTA [XGTACX_site5712]
Second: TATAAATATATATATACACACACATACACAAAAAAA [CACACA_site9191]
The “gcPBM binding intensity (ln)” value of the first is lower: 6.72 for the first, 7.13 for the second.

First: ATATATTATATGTACACACACATATAAGGGATTATA [CACACA_site5]
Second: TATTACTTGATATATACACACATATAACATAAATGC [CACACA_site7783]
The “gcPBM binding intensity (ln)” value of the first is lower: 6.61 for the first, 6.68 for the second.

First: AAAAATATGAAGACACAATATAGAAATAAAAATATA [XGTACX_negctrl_site244]
Second: TTTTTTTTTTTCTTTGCACACAGATAACTTGAAATT [CACACA_site2184]
The “gcPBM binding intensity (ln)” value of the first is lower: 6.5 for the first, 8.45 for the second.

Going from “AATTTAATTATGGTAACACACAATAAAAAAAAATCT [CACACA_site568]” to “ATATTTTATTTTCCATGTACACAAAAAAAAAAAAAA [XGTACX_site8327]”, the “gcPBM binding intensity (ln)” value falls from 6.53 to 6.52.

Compared with “AAGAAAATAAAGGATATGAAAAATAAAAAAAAGGAG [TGCATGCA_negctrl_site265]”, “AGGTTAAAAATAAATACACACATTTTATGGGTGTAT [CACACA_site4702]” is lower in “gcPBM binding intensity (ln)” value: 6.98 for the first, 6.1 for the second.

Going from “TATAAAAATAATATTACACACATGTAAAATGCCCGT [CACACA_site7522]” to TGAAAATAATTATAGGTGCATAAACATACGGATCTT, the “gcPBM binding intensity (ln)” value rises from 6.38 to 8.97.

Going from “TTTTTTTTGTATTTTTCACACACTCTCTATCTCTCT [CACACA_site8655]” to “ATATATTAATAATAAATTAAAAGGAGTAACATTTTC [CACACA_negctrl_site320]”, the “gcPBM binding intensity (ln)” value falls from 6.66 to 6.35.

Going from “CACATTATGTATCATACACACAAATAAATATATAAT [CACACA_site4505]” to “ATATTATTAATATATTGTACTTTTTTTTTTTTATTT [XGTACX_site496]”, the “gcPBM binding intensity (ln)” value falls from 6.7 to 6.32.

Going from “ATATGTATTTAATTCACACAAAAATATGTTCATGAA [CACACA_site5223]” to “TTATATAGATGGAATAGTACAGTATATATATATATA [XGTACX_site8755]”, the “gcPBM binding intensity (ln)” value rises from 6.41 to 9.18.

“ATTTCTCAATCGTAATGTACAAAAAAAAGGAAAAAA [XGTACX_site1193]” and “CCTTTATATTATAAAAGTACATAATATTTTATAAGT [XGTACX_site1629]” are the same in “gcPBM binding intensity (ln)” value: 6.15 for the first, 6.15 for the second.

Compared with “AGCTCTATATTTTACACATGCGATTTGGATATATAT [TGCATGCA_site105]”, “TAAATATATATCATCACACACACATACATAAATATA [CACACA_site183]” is higher in “gcPBM binding intensity (ln)” value: 6.6 for the first, 6.93 for the second.

First: ATATTACAACGTAACGAATATTTCATAAATTCTTAA [CACACA_negctrl_site770]
Second: AAAAAAAAAAAACACACACACACACTAATATATAAA [CACACA_site8302]
The “gcPBM binding intensity (ln)” value of the first is lower: 5.96 for the first, 6.7 for the second.
